The record followed here is the supplement of paper PMC8512760.

The structures appear in SMILES notation. This is one part of the list. Single values are uncertain, as repeats are few or missing.

Holding throughout (experiment): cell viability relative to vehicle (% of vehicle); basal-like triple-negative breast cancer lines; higher = less cytotoxic
Details in all cases: 10 µM; 72 h

Experiment [1] has as its system HCC-1143.
The subject of experiment [2] is HCC-1187.
Experiment [3] relates to MDA-468.
The test system of experiment [4] is SUM-149.
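Note: stably firefly luciferase-GFP labeled cells in 96-well plates, viability read as luciferase photon flux after d-luciferin addition, treated wells normalized to vehicle wells, single-dose high-throughput screen.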

With `C=C[C@]1(C)C[C@@H](OC(=O)CSC2C[C@H]3CC[C@@H](C2)N3C)[C@]2(C)[C@H](C)CC[C@]3(CCC(=O)[C@H]32)[C@@H](C)[C@@H]1O` (some centres not stated) [Retapamulin], the cell viability in experiment [1] came to 72.6; in experiment [2], 72; in experiment [3], 111; in experiment [4], 103.

`OCCN(CCO)c1nc(N2CCCCC2)c2nc(N(CCO)CCO)nc(N3CCCCC3)c2n1` [Dipyridamole]: the cell viability stood at 89.4 in experiment [1], 83.2 in experiment [2], 115 in experiment [3] and 124 in experiment [4].

Take `Cc1nc(-c2ccc(OCC(C)C)c(C#N)c2)sc1C(=O)O` [Febuxostat]: the cell viability in experiment [1] amounted to 25.6; in experiment [2] it was 26.1; in experiment [3], 38.5; in experiment [4] it was 36.1.

Turning to `CS(=O)(=O)c1ccc(C(=O)Nc2ccc(Cl)c(-c3ccccn3)c2)c(Cl)c1` [GDC-0449 (Vismodegib)], the cell viability stood at 96.7 in experiment [1], 91.9 in experiment [2], 86.6 in experiment [3] and 114 in experiment [4].

As to `CN1C2CCCC1CC(NC(=O)c1nn(C)c3ccccc13)C2.Cl` (configuration not stated) [Granisetron HCl], the cell viability in experiment [1] turned out to be 101; in experiment [2], 94.1; in experiment [3] it was 99.4; in experiment [4] it was 105.

Consider `COc1cc2c(Oc3ccc4[nH]c(C)cc4c3F)ncnc2cc1OCCCN1CCCC1` [Cediranib (AZD217)], for which the cell viability in experiment [1] was 88; in experiment [2], 79.9; in experiment [3], 75.1; in experiment [4], 83.1.

For the molecule `Clc1ccc(COC(Cn2ccnc2)c2ccc(Cl)cc2Cl)c(Cl)c1` (configuration not stated) [Miconazole], the cell viability in experiment [1] amounted to 79.3; in experiment [2], 112; in experiment [3], 112; in experiment [4] it was 110.

As to `CC(=O)c1cc2c(o1)C(=O)c1ccccc1C2=O` [Napabucasin], the cell viability in experiment [1] is 24.1; in experiment [2] it was 19.2; in experiment [3], 32.2; in experiment [4], 28.9.

Take `CC(=O)N(c1onc(C)c1C)S(=O)(=O)c1ccc(N)cc1` [Sulfisoxazole Acetyl]: the cell viability in experiment [1] was found to be 73; in experiment [2], 87.7; in experiment [3], 99.5; in experiment [4], 87.6.

As to `COc1ccccc1Oc1c(NS(=O)(=O)c2ccc(C(C)(C)C)cc2)nc(-c2ncccn2)nc1OCCO` [Bosentan], the cell viability in experiment [1] is 99.3; in experiment [2], 116; in experiment [3], 112; in experiment [4], 88.5.

Regarding `CC(C)(C)NC(=O)C1CCC2C3CCC4NC(=O)C=CC4(C)C3CCC12C` (configuration not stated) [Finasteride], the cell viability was 80.9 in experiment [1], 59.4 in experiment [2], 93.5 in experiment [3] and 120 in experiment [4].

For `CCC1OC(=O)C(C)C(OC2CC(C)(OC)C(O)C(C)O2)C(C)C(OC2OC(C)CC(N(C)C)C2O)C(C)(O)CC(C)C2NC(COCCOC)OC(C2C)C1(C)O` (configuration not stated) [Dirithromycin], the cell viability was found to be 62.1 in experiment [1], 82 in experiment [2], 95.7 in experiment [3] and 87 in experiment [4].

Consider `CC1CC(OC(=O)C(O)c2ccccc2)CC(C)(C)C1` (configuration not stated) [Cyclandelate], for which the cell viability in experiment [1] came to 69; in experiment [2] it was 98.8; in experiment [3] it was 99; in experiment [4], 94.1.

Consider `Clc1ccc(C(Cn2ccnc2)OCc2ccsc2Cl)c(Cl)c1` (configuration not stated) [Tioconazole], for which the cell viability in experiment [1] came to 97.8; in experiment [2] it was 79.3; in experiment [3] it was 97.6; in experiment [4], 103.

In the case of `CO[C@H]1C[C@@H]2CC[C@@H](C)[C@@](O)(O2)C(=O)C(=O)N2CCCC[C@H]2C(=O)O[C@H]([C@@H](C)C[C@@H]2CC[C@@H](OCCO)[C@H](OC)C2)CC(=O)[C@H](C)/C=C(\C)[C@@H](O)[C@@H](OC)C(=O)[C@H](C)C[C@H](C)/C=C/C=C/C=C/1C` [Everolimus (RAD001)], the cell viability in experiment [1] stood at 114; in experiment [2], 67.3; in experiment [3] it was 69.7; in experiment [4] it was 91.

For the molecule `CCc1oc2ccccc2c1C(=O)c1cc(Br)c(O)c(Br)c1` [Benzbromarone], the cell viability in experiment [1] worked out at 110; in experiment [2] it was 89.6; in experiment [3], 94.9; in experiment [4], 129.

With `O=C(O)CC(O)CC(O)C=Cc1c(C2CC2)nc2ccccc2c1-c1ccc(F)cc1` (configuration not stated) [Pitavastatin], the cell viability in experiment [1] was 58.8; in experiment [2], 35.3; in experiment [3] it was 35.6; in experiment [4], 66.3.

In the case of `CC(C)CC(NC(=O)C(NC(=O)c1cccc(-c2ccccc2)n1)C(C)O)B(O)O` (configuration not stated), the cell viability in experiment [1] was determined as 21.5; in experiment [2], 13; in experiment [3], 17.2; in experiment [4] it was 33.2.

As to `COC(=O)C(c1ccccc1Cl)N1CCc2sccc2C1.O=S(=O)(O)O` (configuration not stated) [Clopidogrel], the cell viability in experiment [1] came to 87.6; in experiment [2], 99.8; in experiment [3], 88.6; in experiment [4] it was 119.

On to `CCC(C)C(=O)OC1CCC=C2C=CC(C)C(CCC3CC(O)CC(=O)O3)C21` (configuration not stated) [Mevastatin], for which the cell viability in experiment [1] came out at 86.5; in experiment [2], 91.2; in experiment [3], 78.5; in experiment [4] it was 63.8.

In the case of `O=C([O-])Cc1ccccc1Nc1c(Cl)cccc1Cl.[K+]` [Diclofenac Potassium], the cell viability in experiment [1] was determined as 118; in experiment [2], 94.3; in experiment [3], 95.8; in experiment [4] it was 120.

On to `Cl.OC(CNCC(O)C1CCc2cc(F)ccc2O1)C1CCc2cc(F)ccc2O1` (configuration not stated) [Nebivolol], for which the cell viability in experiment [1] is 81.6; in experiment [2], 72.6; in experiment [3], 87.3; in experiment [4], 55.

`CCCCNC(=O)NS(=O)(=O)c1ccc(C)cc1` [Tolbutamide]: the cell viability in experiment [1] stood at 80.1; in experiment [2], 82.3; in experiment [3], 103; in experiment [4] it was 106.
